SMILES strings stand for the structures. The whole screen tested about 110,000 compounds, of which about 230 (0.21%) showed an effect of 50% or more. This is one part of the list.
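Also: 30 min substrate incubation versus DMSO and 10 µM JCP410 controls.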

DPAP1, sequence (Q8IIJ9 whole entry, looked up): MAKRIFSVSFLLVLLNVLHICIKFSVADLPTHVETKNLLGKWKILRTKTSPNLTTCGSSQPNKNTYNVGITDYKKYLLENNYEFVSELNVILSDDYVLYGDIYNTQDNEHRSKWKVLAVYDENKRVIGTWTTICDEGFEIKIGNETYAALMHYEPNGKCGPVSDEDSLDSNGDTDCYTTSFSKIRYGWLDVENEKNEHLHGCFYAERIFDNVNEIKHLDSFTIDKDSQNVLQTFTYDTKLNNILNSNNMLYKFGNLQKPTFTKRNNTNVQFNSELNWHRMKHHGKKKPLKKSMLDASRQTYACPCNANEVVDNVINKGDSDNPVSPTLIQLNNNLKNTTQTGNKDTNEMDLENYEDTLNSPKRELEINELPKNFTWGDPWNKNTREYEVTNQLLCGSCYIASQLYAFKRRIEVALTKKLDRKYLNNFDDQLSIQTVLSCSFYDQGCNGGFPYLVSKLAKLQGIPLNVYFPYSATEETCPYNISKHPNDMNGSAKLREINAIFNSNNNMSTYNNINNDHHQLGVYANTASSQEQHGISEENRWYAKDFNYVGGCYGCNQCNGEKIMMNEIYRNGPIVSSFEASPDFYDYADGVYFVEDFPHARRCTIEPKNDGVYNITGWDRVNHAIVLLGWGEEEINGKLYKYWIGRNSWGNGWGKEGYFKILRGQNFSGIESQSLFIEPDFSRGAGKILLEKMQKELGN

This assay has as its target DPAP1 (Plasmodium falciparum, UniProt Q8IIJ9). Briefly: primary screen, percent inhibition; read by cleavage of a fluorogenic dipeptide substrate; higher = more effect of the substance. More on the design: species or system P. falciparum D10 trophozoite lysates; single well.
Regarding `C=CCNC(=O)c1cc2c(=O)n3cc(C)ccc3nc2n(Cc2cccnc2)c1=N`, the “% Inhibition @ 10 uM” value was -1.47%.
The result for `CC1SC2(CN3CCC2CC3)NC1=O` (centres unmarked) reads -5.51%.
For the compound `COCCCn1c(=O)c2sccc2n2c(CCCC(=O)NC(C)CCc3ccccc3)nnc12` (centres unmarked), the “% Inhibition @ 10 uM” value is on record as -3.88%.
The result for `CCn1c2ccccc2c2cc(C3C4=C(O)CCCC4=NC(C)=C3C(=O)OCCOC)ccc21` (centres unmarked) reads 4.86%; that for `Cc1ccc(NC(=O)C(C)SCc2ccccc2)c(C)c1` (centres unmarked), -4.48%; that for `O=C(COc1ccc(Cl)cc1)NCc1ccccn1`, -7.9%.
The figure for `Cc1nc2c3cccnc3nn2c(C)c1CCC(=O)O` is -0.0115%.
The figure for `COc1ccc(Nc2cc(-c3ccccc3)nc(-c3ccc(Br)cc3)n2)cc1` is 5.73%; for `O=C1CC(c2ccccc2Br)Sc2ccccc2N1` (centres unmarked) it is -1.78%; for `CCC(=O)Nc1c(C(=O)N2CCc3ccccc3C2)cnn1-c1ccccc1Cl` it is -6.67%.
As to `COc1ccc(CCNC(=O)C2CCCN(S(C)(=O)=O)C2)cc1OC` (centres unmarked), the “% Inhibition @ 10 uM” value stood at 35.7%.
The figure for `Cc1ccc(-c2[nH]nc3c2C(c2ccc4c(c2)OCO4)C(C#N)=C(N)O3)cc1` (centres unmarked) is 4.09%; for `CCOc1ccc(-c2nc3s/c(=C\C4=Cc5ccccc5OC4C)c(=O)n3n2)cc1` (centres unmarked) it is 0.487%; for `CCOc1cc(C2C(C(C)=O)=C(C)Nc3ncnn32)ccc1OCc1ccccc1` (centres unmarked) it is -2.13%.
The figure for `Nc1ncnc2c1ncn2CCOc1ccccc1` is -2.21%; for `CCCc1noc2c1C(=O)CC(CC(C)SCC)C2` (centres unmarked) it is -0.902%; for `COCCN1C(=O)/C(=C\c2ccc(C(=O)O)cc2)C(C(=O)OC)=C1C` it is -1.92%.
The result for `Cc1cccc(-c2noc(CN(C(=O)CCN3C(=O)c4ccccc4C3=O)C(C)C)n2)c1` reads -1.22%; that for `Oc1c2c(nc3c(-c4ccc(Cl)cc4)cnn13)CCC2`, -5.28%.
Regarding `CC1CCN(C(=O)C2CCC(C)(C(=O)O)C2(C)C)CC1` (centres unmarked), the “% Inhibition @ 10 uM” value is -0.553%.
The result for `O=C(NCCCN1CCCC1)c1ccc(CSCc2cccc(Cl)c2)o1` reads 0.718%.
As for `COc1cc(CN2CCN(Cc3ccc4c(c3)OCO4)CC2)cc(OC)c1`, the “% Inhibition @ 10 uM” value was -12.3%.
As for `COc1ccc(S(=O)(=O)N2CCN(Cc3ccccc3)CC2)c(Cl)c1Cl`, the “% Inhibition @ 10 uM” value is listed as -10.7%.
Consider `CCCn1c2ccccc2c2cnn(CC(=O)N3CCN(c4ccccn4)CC3)c(=O)c21`, for which the “% Inhibition @ 10 uM” value is listed as 2.82%.
The result for `CCOc1ccc(C2CC(c3c(O)cc(C)oc3=O)=NCCS2)cc1` (centres unmarked) reads -2.32%.
The result for `C=CCOc1ccc2c(C)cc(=O)oc2c1C(=O)c1ccccc1` reads 0.27%; that for `O=C(Cn1cc(S(=O)(=O)Cc2c(F)cccc2Cl)c2ccccc21)N1CCCC1`, -7.42%.
The result for `CCc1c(C)sc(NC(=O)c2cccc(F)c2)c1C(=O)OC` reads -2.27%.
For `CC(C)c1ccc(C(=O)N2CCN(C/C=C/c3ccccc3)CC2)cc1`, the “% Inhibition @ 10 uM” value was -4.6%.
The result for `CC(=O)NCCc1ccc(S(=O)(=O)N(C)C2CCS(=O)(=O)C2)cc1` (centres unmarked) reads -4.42%; that for `CCN1C(=O)N/C(=C/c2ccc(N(C)C)c(Br)c2)C1=O`, 4.22%.
The result for `COc1ccc(CNc2nc3ccccc3c3nc(CCn4c(C)nc5ccccc54)nn23)cc1` reads -2.64%; that for `CC1(C)CC(=O)c2cnc(NCc3ccc(F)cc3)nc2C1`, 1.74%; that for `Cc1c(C(=O)O)sc(-c2ccccc2)c1C(=O)O`, 6.79%.
The figure for `CC1=C(C(=O)Nc2cccc(C)n2)C(c2ccc(N(C)C)cc2)C2=C(O)CC(C)(C)CC2=N1` (centres unmarked) is 4.32%; for `Cc1nn(C(=O)CCC(=O)NCCC2=CCCCC2)c2ccccc12` it is -1.11%.
On to `CCN1CCN(Cc2ccsc2)CC1`, for which the “% Inhibition @ 10 uM” value came out at 1.63%.
The figure for `CCOC(=O)C1=C(CN2CCN(C)CC2)NC(=O)NC1c1ccc(C)cc1` (centres unmarked) is -2.92%.
The result for `O=C(NCCSCc1c(Cl)cccc1Cl)c1ccco1` reads -0.99%; that for `COc1ccc(C(=O)N(CCCN(C)C)c2nc3c(F)cc(F)cc3s2)cc1OC`, 0.49%.
As to `CC(C)c1ccc(C2=CC(c3ccc(Cl)cc3)n3nnnc3N2)cc1` (centres unmarked), the “% Inhibition @ 10 uM” value is on record as 0.219%.
The figure for `CCN(CC)c1ccc(NC(=O)c2csc3ccccc23)cc1` is 3.8%.
The figure for `Clc1cccc(-c2nn[nH]n2)c1` is 3.5%.
For the compound `CC(C)C(=O)Nc1ccc(S(=O)(=O)Nc2nccs2)cc1`, the “% Inhibition @ 10 uM” value was determined as 0.658%.
In the case of `CS(=O)(=O)CCC(C(=O)N1CCCCCC1)N1Cc2ccccc2C1=O` (centres unmarked), the “% Inhibition @ 10 uM” value is recorded as -3.56%.
Consider `CCN1CCN(C(=O)c2ccc(Br)cc2)CC1`, for which the “% Inhibition @ 10 uM” value is recorded as -2.78%.
The figure for `O=C(CSc1nnc(CNC(=O)c2ccco2)o1)NCc1ccc(F)cc1` is -1.58%; for `Cc1cc(NC(=O)C2c3ccccc3Oc3ccccc32)c2ccccc2n1` it is -6.62%; for `Cc1cc(O)c(C2=NCCSC(c3cc([N+](=O)[O-])ccc3O)C2)c(=O)o1` (centres unmarked) it is 17.5%.
In the case of `CCc1ccc(S(=O)(=O)N2CCN(c3cccc(Cl)c3)CC2)cc1`, the “% Inhibition @ 10 uM” value is listed as -3.71%.
For the compound `O=C1CC(c2ccccc2)CN1C(=O)c1ccccc1Cl` (centres unmarked), the “% Inhibition @ 10 uM” value is on record as -3.97%.
The result for `C=CCSc1nc(O)c2c(n1)NC(=O)CC2c1ccc(OCC)c(OC)c1` (centres unmarked) reads -2.88%; that for `CCC1=C(c2ccc(C)cc2)S(=O)(=O)N=C1N1CCC(C(=O)NC2CCCc3ccccc32)CC1` (centres unmarked), -1.75%.
The result for `CCN1CCN(C(=O)COc2ccc3c(c2)C(=O)CC2(CCN(C(C)=O)CC2)O3)CC1` reads 0.0654%; that for `CN1CCN(C(=O)c2c(NC(=O)c3ccccc3)sc3c2CCC(C(C)(C)C)C3)CC1` (centres unmarked), 0.343%.
On to `CCCCN(CC)CCNC(=O)C1CCN(c2nnc(C)c3c(C)n(-c4ccccc4)nc23)CC1`, for which the “% Inhibition @ 10 uM” value was found to be 5.62%.
The figure for `Cc1cc(C)cc(OCCNC(=O)CCCCCN2C(=O)c3ccccc3C2=O)c1` is -2.87%.
For `CC1=C(C#N)C(=O)N(Cc2ccccc2)C(=O)/C1=C\NC(=O)NC12CC3CC(CC(C3)C1)C2`, the “% Inhibition @ 10 uM” value is 0.674%.
Turning to `COc1cccc(Cn2nnc(C(=O)NCc3ccccc3Cl)c2N)c1`, the “% Inhibition @ 10 uM” value is recorded as -2.25%.
The figure for `O=C(Nc1ccc(Cc2ccncc2)cc1)C(F)(F)F` is -1.98%.
The figure for `CC1CN(C(=O)c2ccccc2)OC(c2ccc3c(c2)OCO3)O1` (centres unmarked) is 3.05%.
The result for `CCOC(=O)c1c(N)sc2c1CCC/C2=N/O` reads 3.82%.
Regarding `CCc1ccc2ncc(S(=O)(=O)c3ccc(F)cc3)c(O)c2c1`, the “% Inhibition @ 10 uM” value came to 3.2%.
In the case of `C[C@@H]1[C@@H](OC(=O)NCCc2ccccc2)C[C@H]2C[C@@H]1C2(C)C`, the “% Inhibition @ 10 uM” value amounted to 8.06%.
The figure for `Cc1cccc(-c2nc(CSCC(=O)N3CCc4ccccc4C3)c(C)o2)c1` is 0.689%.
The result for `CCOC(=O)N1CCN(C(=O)Cn2cnc3onc(-c4ccc(Cl)cc4)c3c2=O)CC1` reads -4.23%; that for `CC(=O)c1ccc(S(=O)(=O)N=C2C=C(C(C)(C)C)C(=O)C(C(C)(C)C)=C2)cc1`, 1.67%; that for `Cc1oc(-c2cccs2)nc1CSCC(=O)NCCC1=CCCCC1`, 0.689%.
The result for `O=C(Nc1ccc(Cl)cn1)c1cc2c(s1)-c1ccccc1OC2` reads -10.5%; that for `Cc1ccc(-c2cc(NC(=O)c3ccc(F)cc3)on2)cc1`, -5.08%.
`Cc1ccc(CNC(=O)C2CCN(c3nnc(N4CCCC4=O)s3)CC2)cc1`: the “% Inhibition @ 10 uM” value was found to be 0.623%.
On to `CS(=O)(=O)c1ccc2nc(NC(=O)CN3CCN(Cc4ccccc4)CC3)sc2c1`, for which the “% Inhibition @ 10 uM” value came out at 7.68%.
As for `CC(C)(C)C1CC=C2C(C#N)=C(N)C(C#N)(C#N)C(c3ccccc3)C2C1` (centres unmarked), the “% Inhibition @ 10 uM” value is on record as -1.68%.
Take `COc1cccc(C2(c3ccc(O)cc3)CCCC2)c1`: the “% Inhibition @ 10 uM” value is 6.19%.
The figure for `COc1cccc(-c2nc(SCC(=O)Nc3sc4c(c3C#N)CCCC4)nc(O)c2C#N)c1` is 5.41%.
On to `CCOc1ccc(C(=O)Nc2nc3c(s2)CCc2ccccc2-3)cc1`, for which the “% Inhibition @ 10 uM” value amounted to 4.35%.
The figure for `Oc1cnnc(NCc2ccco2)n1` is 5.85%; for `COc1ccc(-c2cc(C(=O)N3C(C)CCCC3C)no2)cc1OC` (centres unmarked) it is 9.67%; for `Cc1cccc(NC(=O)CN2C(=O)N/C(=C/c3cccn3-c3ccccc3)C2=O)c1` it is -3.84%.
Take `CC(C)(C)c1ccc(OCCCC(=O)Nc2nccs2)cc1`: the “% Inhibition @ 10 uM” value is given as -6.86%.
With `CCCC1CN2CCC3=C(CCC3)C2(C)C1` (centres unmarked), the “% Inhibition @ 10 uM” value is -2.9%.
The result for `CC1=NC(=S)C(C#N)C(C)=C1Cc1ccccc1` (centres unmarked) reads 46.9%; that for `CC(C)CC(=O)Nc1nonc1-c1ccc(Cl)cc1`, 0.635%; that for `Cc1ccc(/C=C2/SC(Nc3cccc(C)c3C)=NC2=O)o1`, 2.6%.
As for `CC1(C)CC2(CC(c3ccccc3Cl)Oc3cc(O)ccc32)NC(=S)N1` (centres unmarked), the “% Inhibition @ 10 uM” value is recorded as 2.8%.
Turning to `CN(C)c1nc(-c2ccccc2O)nc2ccccc12`, the “% Inhibition @ 10 uM” value is reported as -1.48%.
The figure for `CSc1ncc(C(=O)NC2CCN(Cc3ccccc3)CC2)c(-c2ccccc2)n1` is 5.4%.
The figure for `CCCCNc1ccncc1S(=O)(=O)NC(=O)NC(C)C` is 0.245%; for `CCOC(=O)c1c(C)[nH]c(C)c1S(=O)(=O)N(C)CC(=O)NC1CCCCCC1` it is -5.12%.
The result for `Cc1ccc(C)c(/N=C2/SC(CC(=O)Nc3ccc(C(=O)O)cc3)C(=O)N2C)c1` (centres unmarked) reads 4.84%.
Regarding `CCN(CC)C(=O)CSc1nc(-c2ccc(OC)cc2)nc2c1Cc1c(CO)cnc(C)c1O2`, the “% Inhibition @ 10 uM” value is listed as -3.15%.
The figure for `O=c1ccc2cc(S(=O)(=O)NCc3ccccc3)ccc2o1` is -1.72%.
The figure for `COCCNC(=O)c1ccc(CS(=O)c2cccc(C)c2)o1` (centres unmarked) is 1.77%; for `Cc1cc(C)c(C(=O)/C=C/c2ccccc2Cl)c(O)n1` it is 4.57%; for `O=C(COc1ccc(/C=C2/SC(=O)N(CC(=O)N3CCOCC3)C2=O)cc1)N1CCOCC1` it is 2.65%.
The result for `Cc1cc(C)n(CCc2nc3c4ccccc4nc(SCc4cccc(F)c4)n3n2)n1` reads 0.4%; that for `O=C(CC(c1ccccc1)c1cc(Cl)ccc1O)N1CCCCC1` (centres unmarked), 0.843%; that for `CCS(=O)(=O)c1ncc(Cl)c(C(=O)N(Cc2ccc(Cl)cc2)Cc2ccco2)n1`, 2.19%.

These data come from paper PMC6919601, “Identification of Plasmodium dipeptidyl aminopeptidase allosteric inhibitors by high throughput screening” (PLoS ONE, 2019).
